From PMC9032790

Test system: antibody of the 5C3-cell clone
Experiment: heterologous ic-ELISA hybridoma screening, 5C3 clone
Details: free clothianidin 50 μg/L

SMILES: CN/C(=N\[N+](=O)[O-])NCc1cnc(Cl)s1 [clothianidin]
- inhibition of antibody binding to IMI-H-OVA (IMI-H-OVA 5 μg/mL): 51.9%
- inhibition of antibody binding to THC-H-OVA (THC-H-OVA 5 μg/mL): 53.72%
